Source: PubChem BioAssay AID662 (National Center for Advancing Translational Sciences (NCATS), 2007)
In all, about 71,000 compounds went through this assay and about 1,800 (2.5%) were called active. Inconclusive results, whose numbers are uncertain, are shown with a selection of clear calls. Calls come from the whole dose curve; as a rule, active = well fitted activation curve with a large enough effect in the signal ratio, with a control signal flat (not every such curve was filed as active); inconclusive = small, poorly fitted or top-dose-only effect, or effect the other way, or a change in a side signal; inactive = flat fitted curve, though single readings scatter; the % refers to the signal ratio. Potencies of inconclusive entries are doubtful fits and often do not repeat.

Test: Cell signaling CRE-BLA (Fsk stim); for activity change, negative = inhibition: % of control where 0% means no effect
Details: CHO CRE-bla reporter (cAMP response element driving beta-lactamase), forskolin EC10, beta-lactamase ratio; activity change, negative = inhibition: at 38.2 µM (top of the series) unless noted
Outline: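 CHO CRE-bla cells, overnight plating in Opti-MEM with 0.5% dialyzed FBS; cpd titration + EC10 NKH 477, 3 h 37 °C; CCF4 2 h RT; ex 405/em 460 vs 530 ratio → %Activity, AC50.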
Potency is the fitted concentration of half-maximal effect; tags give direction and shape of the fitted curve.

Compound | activity change, negative = inhibition | Potency
CCC(=O)Nc1cc2nn(-c3ccc(OC)cc3)nc2cc1C | inactive: 7.46% | 
O=C(COc1ncnc2ccccc12)NCCC1=CCCCC1 |  | inconclusive: 5.01 µM [falling, single point]
COc1ccc(NC(=O)CN(c2ccccc2)S(=O)(=O)N(C)C)cc1OC | inconclusive: 28.4% | 
COc1ccc2[nH]cc(CCNc3ncncc3-c3ccc(C(=O)N(C)C)cc3)c2c1 | inactive: 10.2% | 
O=C(CSc1nc(-c2ccco2)cc(C(F)(F)F)n1)N1CCN(Cc2ccccc2)CC1 | inactive: -4.54% | 
COc1ccc(-c2nnc(-c3ccc(N(C)C)cc3)o2)cc1 | inactive: -5.13% | 
COC(=O)c1c(NC(=O)c2ccco2)sc2c1C(C(=O)OC)CC2 (stereo unspecified) |  | inconclusive: 10 µM [rising, partial curve]
Cc1ccc(N2CCn3c2nc2c3c(=O)n(CCc3ccccc3)c(=O)n2C)cc1 | inactive: 13% | 
Cc1ccnc(SCCn2c(N(C)Cc3ccccc3)nc3c2c(=O)n(C)c(=O)n3C)n1 | inactive: -5.53% | 
COc1cccc(C(CC(=O)NCC2CCCO2)NS(=O)(=O)c2ccc(C)cc2)c1OC (stereo unspecified) | inactive: -14.5% | 
CCOC(=O)N1CCC(NC(=O)CNS(=O)(=O)c2ccc(Br)s2)CC1 | inconclusive: 12.4% | 
COC(=O)c1c(C(=O)OC)c(C)n(Cc2ccco2)c1C |  | inconclusive: 0.316 µM [falling, single point]
COc1ccc(CN(C(=O)c2oc3ccccc3c2C)C2CCS(=O)(=O)C2)cc1 (stereo unspecified) | inactive: -15.8% | 
Cc1ccc(=O)n(-c2ccccc2)c1 | inactive | 
COc1ccc(CNc2ncnc3ccc(-c4cccnc4)cc23)c(OC)c1 |  | active: 1 µM
Cn1c(=O)[nH]c(=O)c2c1nc(N1CCOCC1)n2CC(O)COc1ccc2ccccc2c1 (stereo unspecified) |  | inconclusive: 25.1 µM [rising, single point]
O=C(O)CCCC(=O)Nc1ccccc1C(=O)N1CCCC1 | inactive: -1.75% | 
CN(C)C(=O)c1ccc(-c2nc(NCc3ccccc3)c3ccccc3n2)cc1 |  | active: 2 µM
CCOC(=O)C1CCCN(c2ncnc3c2cnn3-c2ccc(Cl)cc2)C1 (stereo unspecified) |  | inconclusive: 10 µM [rising, single point]
CCOc1ccc(C(=O)CN2CCN(S(=O)(=O)c3ccc(F)cc3)CC2)cc1 | inconclusive: 0.313% | 
CNc1nc(-c2ccccc2OC)nc2ccccc12 |  | inconclusive: 6.31 µM [rising, partial curve]
O=c1cc(Nc2ccc3c(c2)OCCO3)[nH]c(=O)n1Cc1ccc(F)cc1 | inconclusive: 5.12% | 
O=C(O)COc1c(F)c(F)c(C(F)(F)F)c(F)c1F | inconclusive: -1.09% [at 7.6 µM] | 

Compound | activity change, negative = inhibition | Potency
O=C(Nc1ccc(-c2cn3ccsc3n2)cc1)C1COc2ccccc2O1 (stereo unspecified) | inconclusive: -6.11% | 
O=C(O)[C@@H]1CCCC[C@@H]1C(=O)N1CCc2ccccc2C1CN1C(=O)c2ccccc2C1=O (stereo partly specified) | inconclusive: -19% | 
CC(=O)N1CCC2(CC1)CCN(c1ccccc1)CC2 | inactive: 0.765% | 
Cc1ccc(CNC(=O)CN2CCC(C(N)=O)CC2)cc1 | inactive: -3.39% | 
Cc1sc2c(=O)n3c(nc2c1C(=O)NCCCN1CCOCC1)CCCCC3 |  | inconclusive: 2 µM [rising, partial curve]
O=C(NCC1CCS(=O)(=O)C1)Oc1ccccc1 (stereo unspecified) | inconclusive: 0.662% [at 7.6 µM] | 
CCCCC(=O)N=c1sc2cc(S(C)(=O)=O)ccc2n1C | inconclusive: 11.3% | 
CN(C)CCN1C(=O)c2oc3ccccc3c(=O)c2C1c1ccccc1 (stereo unspecified) | inactive: 18.5% | 
CCSc1nnc(Cc2cc(=O)[nH]c(=O)[nH]2)n1-c1cc(C)ccc1C | inconclusive: 11.2% | 
CCC(=O)Nc1ccc2oc(-c3cccc(C)c3)nc2c1 | inactive: 9.15% | 
CCOc1ccccc1NC(=O)c1ccccc1NS(C)(=O)=O | inactive: -7.53% | 
Cc1c2cc[n+](CCN3CCCCC3)cc2c(C)c2c1[nH]c1ccc(O)cc12 | inactive: -4.4% [at 7.6 µM] | 
CCOC(=O)c1c(OCC)[nH]c2c1cc(O)c1ccccc12 | inactive: 5.51% | 
c1ccc(-c2ccccn2)nc1 | inconclusive: 3.93% | 
CSCCC(NC(=O)CCN1C(=O)c2ccccc2C1=O)C(=O)O (stereo unspecified) | inconclusive: 1.43% | 
O=C(NCC(c1cccnc1)N1CCN(c2ccc(F)cc2)CC1)c1ccc2c(c1)OCO2 (stereo unspecified) |  | inconclusive: 0.126 µM [falling, full curve, poor fit]
CCc1ccccc1OCc1nnc(N)s1 | inactive: 2.36% | 
Cc1ccc(NC(=O)N2CCC(c3nc4c(nnn4Cc4cccc(Cl)c4)c(=O)[nH]3)CC2)cc1 |  | inconclusive: 25.1 µM [rising, single point]
COc1cccc(N(C(=O)CNC(=O)c2ccco2)C(C(=O)NC2CCCCC2)c2ccncc2)c1 (stereo unspecified) | inactive: 0.59% | 
CC1(C)S[C@@H]2[C@H](NC(=O)[C@@H](N)c3ccccc3)C(=O)N2[C@H]1C(=O)O[C@H]1OC(=O)c2ccccc21 | inactive: -14.9% [at 17.1 µM] | 
CCOC(=O)COc1ccc(-c2nnc(-c3ccccc3)o2)cc1 | inactive: -3.97% | 
CCOC(=O)Cn1c(=O)oc2cc(S(=O)(=O)Nc3cccc(C)c3)ccc21 | inconclusive: 28.8% | 
O=C(CN(Cc1ccc2c(c1)OCO2)C(=O)CSc1nc2ccccc2o1)NC1CCCCC1 | inactive: -14.3% | 

Compound | activity change, negative = inhibition | Potency
CCCCCn1c(Sc2nc3ccccc3s2)nc2c1c(=O)[nH]c(=O)n2C |  | active: 12.6 µM
Cc1cc2c(c(=O)n1Cc1cccnc1)C(Cc1ccccc1)C(C#N)=C(N)O2 (stereo unspecified) |  | inconclusive: 10 µM [falling, single point]
CC1CC(C)CN(S(=O)(=O)c2ccc(C(=O)Nc3nnc(-c4cccs4)o3)cc2)C1 (stereo unspecified) | inactive: -9.53% | 
CN1CCN(c2ccnc(-c3ccoc3)n2)CC1 | inactive: -3.99% | 
COc1ccc(/C(O)=C2/C(=O)C(=O)N(CCN3CCOCC3)C2c2ccc(C)cc2)cc1 (stereo unspecified) | inconclusive: 3.4% [at 7.6 µM] | 
O=C(NCc1ccc(F)cc1)c1cc(-c2cccs2)on1 | inconclusive: 3.41% | 
OC1CCCC1 | inactive: 1.05% | 
COCC(=O)N1CCC2(CC1)CN(c1ccccn1)C2 | inactive: -9.65% | 
CCOC(=O)c1sc(NC(=O)CSc2nnnn2-c2ccc(C)cc2)c(C(=O)OCC)c1C | inactive: 8.31% | 
O=C(CC1N=C2c3ccccc3N=C(SCc3ccc(Cl)cc3)N2C1=O)NCc1ccco1 (stereo unspecified) | inconclusive: -22.3% | 
c1ccc2c(c1)C(=Nc1ccc(N=C3c4ccccc4-c4ccccc43)cc1)c1ccccc1-2 | inactive: -1.02% [at 7.6 µM] | 
COc1ccc(N2C(=O)CC(N3CCOCC3)C2=O)cc1 (stereo unspecified) | inactive: 0.00555% | 
COCCOC(=O)C1=C(N)OC2=C(C(=O)CCC2)C1c1cccnc1 (stereo unspecified) | inactive: -2.1% | 
CCCS(=O)(=O)n1nc(-c2ccc(Br)cc2)cc1N | inactive: -0.856% | 
COC(=O)c1ccccc1NC(=O)CN1CCC(C(=O)c2ccc3c(c2)OCCO3)CC1 | inconclusive: 15.4% [cytotoxic] | 
COc1ccc(NC(=O)N2CCCCC2)cc1 | inactive: 0.777% | 
CCN(CC)CCCn1c(-c2ccccc2)nc2c(NCc3ccccc3)nc(C)nc21 | inactive: -8.78% | 
Cc1cc(=O)oc(C)c1C(=O)NCCCN1CCN(c2ccccc2F)CC1 | inactive: -18.2% | 
COc1ccc(N(CC(=O)NC2CCCC2)C(=O)Cn2nnc(-c3ccc(F)cc3)n2)cc1OC | inconclusive: -28.4% | 
O=C(Nc1ccccc1N1CCCC1)c1cc2ccccc2o1 | inactive: 7.36% | 
NC(N)=NC[C@@H]1CCCCCCN1 | inactive: -0.313% [at 7.6 µM] | 
Cn1c(=O)c(NCCO)c2c3c(cccc31)C(=O)c1ccccc1-2 | inconclusive: 24.4% | 
CC(C)C(NC(=O)C1CCCCC1)C(=O)Nc1ccc2c(c1)OCCO2 (stereo unspecified) | inconclusive: 18.4% | 

Compound | activity change, negative = inhibition | Potency
Cc1ccc2oc(-c3ccccc3C(=O)O)cc(=O)c2c1 | inactive: -1.42% | 
C=CCn1c(N)c(C(=O)OCCC)c2nc3ccccc3nc21 |  | active: 10 µM
CCOc1ccc(C(C)(N)C(=O)O)cc1 (stereo unspecified) | inactive: 0.826% | 
COc1ccccc1-c1nccc(NC2CCNCC2)n1 | inactive: -7.37% | 
O=C(CN1CCC(n2nnc3cc(F)ccc32)CC1)N1CCc2ccccc2C1 | inactive: -2.41% | 
O=S(=O)(NCCCCCNS(=O)(=O)c1ccc(F)cc1)c1ccc(F)cc1 | inconclusive: -8.41% | 
CCn1c(N)c(C(=O)NCc2ccco2)sc1=S | inconclusive: 17.7% | 
S=c1[nH]nc(C23CC4CC(CC(C4)C2)C3)n1Cc1ccco1 | inactive: -3.55% | 
O=C(O)c1c(-c2ccccc2)c2oc3ccccc3c2[nH]c1=O | inactive: -16.2% | 
N#CC1=C(N)Oc2c(ccc3cccnc23)C1c1cccnc1 (stereo unspecified) | inconclusive: 4.21% | 
O=C(CSc1nccc(=O)[nH]1)N1CCCc2ccccc21 | inconclusive: -9.06% | 
O=P(c1cccs1)(c1cccs1)c1cccs1 | inconclusive: 12.9% [at 7.6 µM] | 
N=C(N)SCc1nc(-c2ccc(Cl)cc2)no1 | inactive: -8.33% [at 7.6 µM] | 
O=C(O)c1cc2cc(Cl)cc(Cl)c2oc1=O | inconclusive: 2.35% | 
CN(c1ccccc1)c1nc2ccsc2c(=O)s1 |  | inconclusive: 12.6 µM [rising, partial curve, poor fit]
CN(Cc1ccc(O)cc1)C1CCCCC1 |  | inconclusive: 0.0251 µM [rising, single point]
COc1ccccc1NC(=O)c1oc2ccccc2c1NC(=O)c1cc(OC)c(OC)c(OC)c1 |  | active: 1.26 µM
Oc1ccc(COCc2ccccc2)c2cccnc12 | inactive: 3.26% | 
c1cncc(Nc2nc(-c3cccnc3)cs2)c1 |  | inconclusive: 0.316 µM [falling, full curve, poor fit]
Cn1cc(C(=O)NCCc2ccccc2)c(=O)c2cc(S(=O)(=O)N3CCOCC3)ccc21 | inconclusive: 10.1% | 
COc1ccc(Oc2c(C)oc3cc(OC(=O)N4CCOCC4)ccc3c2=O)cc1 | inconclusive: 2.95% | 
COc1cccc(-c2cncnc2NCc2ccccc2)c1 | inactive: -0.714% | 
